# Experimental data as given in PubChem BioAssay AID686978 (National Center for Advancing Translational Sciences (NCATS), 2013).
# Where “and” joins values, the source holds several entries; their conditions need not be identical. Identical values can stand only once. Out of some 420,000 compounds screened, about 64,000 (15%) were called active. The shares of active, inactive and inconclusive entries below differ from those in the screen. Calls come from the whole dose curve; as a rule, active = well fitted inhibition curve with a large enough effect; inconclusive = small, poorly fitted or top-dose-only effect; inactive = flat fitted curve, though single readings scatter. Potencies of inconclusive entries are doubtful fits and often do not repeat.
# Assay: qHTS for Inhibitors of human tyrosyl-DNA phosphodiesterase 1 (TDP1): qHTS in cells in absence of CPT; note: nearly all actives have a fitted effect of over 55% in size
# Details: DT40 Tdp1-/- hTDP1 cells, no CPT, ATP luminescence, 48 h; activity change, negative = growth inhibition: at 46.2 µM (top of the series)
# Summary of the method: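 A cellular qHTS used chicken DT40 cells lacking endogenous Tdp1 but carrying stably transfected human TDP1. Compounds were applied without camptothecin, and cell growth kinetics were judged by ATP-dependent luminescence after ≥48 hr.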
# % is set by controls: 0 for no effect and ±100 for the full control effect; potency is the fitted concentration of half-maximal effect; tags give direction and shape of the fitted curve.
SMILES,"activity change, negative = growth inhibition",Potency
Cc1cccn2c(=O)c(C=C(C#N)C#N)c(N3CCN(C)CC3)nc12,inactive: -17.6%,
CCc1nc2c(cnn2-c2ccc(Cl)cc2)c(=O)n1-c1ccc(OC)cc1,,"inconclusive: 25.9 µM [inhibitor, single point]"
CCOCCCNC(=O)c1ccc2c(c1)N(Cc1ccccc1)C(=O)CS2=O (stereo not given),inactive: 4.35%,
O=C(NNS(=O)(=O)c1ccc(Cl)cc1)C1CCN(Cc2ccccc2)CC1,inactive: -15.1%,
COc1ccc(NC(=O)c2ccc3c(c2)CCN3S(=O)(=O)c2ccccc2)cc1,,"inconclusive: 16.4 µM [inhibitor, single point] and inconclusive: 25.9 µM [inhibitor, single point]"
COc1ccc(C=CC(=O)c2ccc3cc(OC)c(OC)cc3c2)cc1OC,,active: 5.8 µM
COc1ccc(NC(=O)CN(C)C(=O)c2ccc(C)c(S(=O)(=O)N3CCCCC3)c2)cc1,,"inconclusive: 6.51 µM [inhibitor, single point]"
CCOc1ccc(S(=O)(=O)NCCC(=O)NCC(c2ccc(OC)cc2)N2CCOCC2)cc1 (stereo not given),,"inconclusive: 29.1 µM [inhibitor, single point]"
COc1ccc(-c2cc(C(=O)Oc3cccc(C)c3C)c3ccccc3n2)cc1,,"inconclusive: 18.4 µM [inhibitor, single point]"
OC(CN1CCN(c2ccc(F)cc2)CC1)c1ccc(Cl)cc1 (stereo not given),,"inconclusive: 2.31 µM [inhibitor, partial curve]"
CCn1c(-c2cccnc2)nc2cc(NC(=O)COC)cc(C(=O)N3CCc4ccccc4C3)c21,inactive: 4.89%,
COc1ccccc1NC(=O)c1ccc(CN(c2cc(Cl)ccc2C)S(=O)(=O)c2ccccc2)cc1,,"inconclusive: 18.4 µM [inhibitor, partial curve, poor fit]"
C/C(=N\NC(=O)c1cc(-c2cccnc2)nc2ccccc12)c1ccc(O)cc1O,,active: 10.3 µM
COc1ccc(C(=O)COC(=O)c2ccc3ccccc3n2)cc1,inconclusive: -31.8% [inhibitor],
COC(=O)CSc1snnc1-c1ccc(F)cc1,inactive: -2.46%,
COc1ccc(N2CC(C(=O)Nc3nnc(SCc4cccnc4)s3)CC2=O)cc1 (stereo not given),inactive: -18.4%,
COc1ccc(NC(=O)N2CCC3(CC2)CCN(C(=O)c2cc(C(F)(F)F)cc(C(F)(F)F)c2)CC3)cc1,inactive: -28.2%,
O=C(O)CCn1c(=O)[nH]c(=O)n(CCC(=O)O)c1=O,inactive: -0.393%,
CCOC(=O)N1CCN(S(=O)(=O)c2ccc(C)c(C)c2)CC1,,"inconclusive: 23.1 µM [inhibitor, single point]"
COCCn1ccc2c(OCC(=O)NCCc3ccccc3)cccc2c1=O,,"inconclusive: 29.1 µM [inhibitor, single point]"
O=C(Cn1c(=O)[nH]c2ccccc2c1=O)Nc1ccc2c(c1)OCO2,inactive: 0.979%,
CCC(C)N(C(=O)c1csnn1)C(C(=O)NC1CCCC1)c1c(F)cccc1Cl (stereo not given),,"inconclusive: 29.1 µM [inhibitor, single point]"
c1ccc2c(c1)ccc1ncccc12,inactive: -18%,

SMILES,"activity change, negative = growth inhibition",Potency
CCOC(=O)c1c(-c2ccccc2)csc1NC(=O)CSc1nnnn1C,,"inconclusive: 35.5 µM [inhibitor, partial curve, poor fit]"
CNc1c([N+](=O)[O-])cnn1-c1ccc(Cl)cc1,inactive: -7.1%,
CC(C)(C)NC(=O)CC1C(=O)NCCN1Cc1c(F)cccc1Cl (stereo not given),inactive: -1.83%,
COC(=O)Oc1ccc(/C=N/NC(=O)CSCc2ccc(Cl)cc2)cc1OC,,active: 11.6 µM
CC(=O)Nc1cc(-c2ccccc2N(C)C)cn2c(-c3cccc(C(F)(F)F)c3)cnc12,,"inconclusive: 23.1 µM [inhibitor, single point]"
CN(C)C(=O)N1CCN(C(=O)N2CCOCC2)CC1,inactive: -1.43%,
CCOc1ccc(NC(=O)CN(C)C(=O)c2cc(-c3ccc(OC)cc3)nc3ccccc23)cc1OCC,,active: 14.6 µM
COCC1CCN(C(=O)c2cc(COc3ccc(OC)cc3Cl)on2)C1 (stereo not given),,"inconclusive: 29.1 µM [inhibitor, single point]"
Cc1ccc(S(=O)(=O)/N=C2\C=C(NS(=O)(=O)c3ccccc3)C(=O)c3ccccc32)c(C)c1,,"inconclusive: 13 µM [inhibitor, partial curve]"
Cc1nnc(C)c2c(C)n(-c3ccccc3N)c(C)c12,,"inconclusive: 25.9 µM [inhibitor, single point]"
COc1cnc(-c2ccccn2)nc1Sc1ccc(F)cc1,,active: 0.517 µM
CCOc1ccc(NC(=O)CN(C)C(=O)c2cc(S(=O)(=O)N3CCCCC3)ccc2Cl)cc1OCC,,"inconclusive: 18.4 µM [inhibitor, single point]"
COc1cc(/C=N\Nc2nc3ccccc3o2)cc(OC)c1OC,,"inconclusive: 16.4 µM [inhibitor, single point]"
CCCCOc1cccc(-c2nnc(NC(=O)CSc3ccc(C)cc3)s2)c1,,"inconclusive: 16.4 µM [inhibitor, partial curve]"
CCOC(=O)/C(=N/Nc1ccc(C)cc1)S(=O)(=O)c1ccc(Cl)cc1,,"inconclusive: 16.4 µM [inhibitor, partial curve]"
Cc1nc2cccnc2n1-c1cccc(C(=O)NCc2cccc(Cl)c2)c1,,active: 18.4 µM
CCOc1ccc(-c2cc3nc(C4CCN(C(=O)OC(C)(C)C)CC4)c(C(=O)Nc4cccc(C(F)(F)F)c4)cn3n2)cc1,,"inconclusive: 29.1 µM [inhibitor, single point]"
COc1ccc(OC(=O)N(C)C[C@@H]2OCc3cn(nn3)CCCC(=O)N([C@@H](C)CO)C[C@H]2C)cc1,inactive: -15.5%,
COC(=O)c1ccc(/C(O)=C(\C#N)c2nc3ccccc3s2)cc1,,"inconclusive: 23.1 µM [inhibitor, single point]"
COC(=O)c1cc(NC(=O)Cc2ccc(OC)c(OC)c2)cc(C(=O)OC)c1,,"inconclusive: 23.1 µM [inhibitor, single point]"
COc1ccc(-c2nc(-c3ccccc3OC)no2)cc1OC,,"inconclusive: 18.4 µM [inhibitor, single point]"
CC(Oc1ccc(C#N)cc1)C(=O)N1CC=C(c2ccccc2)CC1 (stereo not given),,"inconclusive: 29.1 µM [inhibitor, single point]"
